Test results: the RNAGym collection of RNA variant scans (doi:10.1093/nar/gkz1192)
Read counts are not given, so values of variants with three or more changes are uncertain.

B1: CPEB3 Ribozyme (parent)
chain: UAACAGGGGGCCACAGCAGAAGCGUUCACGUCGCAGCCCCUGUCAGAUUCUGGUGAAUCUGCGAAUUCUGCUGUAUAUCUC

Variants of: B1
Experiment: self-cleavage, relative activity (ratio to wild type); higher = more cleavage; in vitro, sequencing
In short: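 Relative activity compares each variant's cleaved/total read fraction with that of the unmutated ribozyme. To get these fractions, barcoded CPEB3 ribozyme libraries from rounds of error-prone PCR were transcribed with T7 RNA polymerase for 5 hours at 37°C and then given 15 min of DNase I treatment before EDTA was added. The RNAs were reverse transcribed with template switching and sequenced on Illumina, and DNA sequencing linked barcodes to variants. A minimum of 5 reads applied, and three batches were averaged.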
For G22U U41A A47U U72C, the self-cleavage was 0.13.
For G22U U41C U58C U60C U66C U78C, the self-cleavage was 0.07.
In the case of G22U U41C U69A U74C, the self-cleavage is reported as 0.12.
G22U U41G U72C gave a self-cleavage of 0.07.
With G22U U43C A47U U74C the self-cleavage was 0.08.
Work on G22U U48C C62A A64G yielded a self-cleavage of 0.14.
G22U U49C U54C U66G gave a self-cleavage of 0.15.
With G22U U51A U66C the self-cleavage was 0.47.
C23A A28G C29A U54C showed a self-cleavage of 0.09.
With C23A A28G U31C A56G U67C U72G U76A the self-cleavage was 0.05.
C23A A28G U31C A56G U67C U78C showed a self-cleavage of 0.09.
Variant C23A A28U A45G has a self-cleavage of 0.21.
For C23A A35G A45U A47C U48A U60C, the self-cleavage was 0.07.
Variant C23A A35G A47G C79U has a self-cleavage of 0.11.
Variant C23A A35G C44G A47U U69C U74C A77U has a self-cleavage of 0.05.
In the case of C23A A35U C39A U58G U66C, the self-cleavage is reported as 0.07.
With C23A A45G A75U U80A the self-cleavage was 0.06.
For C23A A45G G52A U54G, the self-cleavage was 0.33.
For C23A A45G U49A, the self-cleavage was 0.47.
C23A A45G U54A showed a self-cleavage of 0.17.
C23A A45G U58C U72G gave a self-cleavage of 0.12.
Variant C23A A45G U60C U67A A77G has a self-cleavage of 0.11.
C23A A45G U67A gave a self-cleavage of 0.11.
C23A A47G U67C showed a self-cleavage of 0.05.
With C23A A56G U80C the self-cleavage was 0.12.
Work on C23A C27A U41A yielded a self-cleavage of 0.08.
C23A C29A U54A A65U gave a self-cleavage of 0.05.
Work on C23A C29A U67A yielded a self-cleavage of 0.11.
C23A C34A A35U A64G gave a self-cleavage of 0.07.
For C23A C34A U51A, the self-cleavage was 0.14.
C23A C37G U72C U78C gave a self-cleavage of 0.07.
For C23A C38G A56G U60A, the self-cleavage was 0.2.
Work on C23A G46A A56G A64U A77U yielded a self-cleavage of 0.04.
With C23A G53U U76C the self-cleavage was 0.16.
In the case of C23A U25A G61A U67C U72A U80A, the self-cleavage is reported as 0.07.
In the case of C23A U25A U54A, the self-cleavage is reported as 0.27.
C23A U25C U58C G70A showed a self-cleavage of 0.11.
C23A U25C U66C gave a self-cleavage of 0.13.
Work on C23A U26A A35C A65G yielded a self-cleavage of 0.16.
For C23A U26A C38A A45G U48C A56U, the self-cleavage was 0.03.
For C23A U26A U41C A45U U76C, the self-cleavage was 0.11.
Variant C23A U26C U43A U72C U76C has a self-cleavage of 0.29.
Variant C23A U26G A47G U72A U80C has a self-cleavage of 0.11.
C23A U31A A35G A56G gave a self-cleavage of 0.22.
Work on C23A U31A A47G U49C yielded a self-cleavage of 0.11.
C23A U31A A56G U66C showed a self-cleavage of 0.06.
For C23A U31A A56G U80A, the self-cleavage was 0.06.
With C23A U31A A56G U80C the self-cleavage was 0.25.
Variant C23A U31A U43A U74A U80C has a self-cleavage of 0.34.
Variant C23A U31C A56G U67A has a self-cleavage of 0.11.
C23A U31C U41C showed a self-cleavage of 0.26.
Variant C23A U31C U41C U49A U78C has a self-cleavage of 0.13.
In the case of C23A U31C U41C U51A A75G, the self-cleavage is reported as 0.15.
For C23A U31C U49C, the self-cleavage was 0.15.
C23A U41A A64G showed a self-cleavage of 0.2.
With C23A U41A U69C the self-cleavage was 0.14.
Work on C23A U41C U78A U80A yielded a self-cleavage of 0.3.
With C23A U41G A47U U54C the self-cleavage was 0.1.
C23A U43C G55A A56G U80C showed a self-cleavage of 0.13.
C23A U48C U51C U58C gave a self-cleavage of 0.05.
With C23A U49A U72A the self-cleavage was 0.1.
For C23A U51A A56G A77G, the self-cleavage was 0.09.
Work on C23A U51A A64U A65G U72C yielded a self-cleavage of 0.07.
Variant C23A U51A U60A U66C has a self-cleavage of 0.07.
C23A U54C A65G U74A showed a self-cleavage of 0.15.
Variant C23A U60C C71A has a self-cleavage of 0.06.
C23A U72C A75G showed a self-cleavage of 0.18.
In the case of C23A U72G A77G, the self-cleavage is reported as 0.06.
With C23A U76C A77G the self-cleavage was 0.22.
Variant C23G A28G A57G A64G U72C A77G has a self-cleavage of 0.18.
For C23G A28G U49A, the self-cleavage was 0.18.
Work on C23G A28G U60A U66C yielded a self-cleavage of 0.08.
C23G A35G A56G showed a self-cleavage of 0.11.
Variant C23G A35G U58C C59U G70A has a self-cleavage of 0.05.
In the case of C23G A35G U80A, the self-cleavage is reported as 0.17.
Work on C23G A35U A75G yielded a self-cleavage of 0.11.
For C23G A35U U41A C62A U67C, the self-cleavage was 0.05.
Variant C23G A45U A77U has a self-cleavage of 0.09.
Work on C23G A47C U51C A64G U69A yielded a self-cleavage of 0.1.
With C23G A47G A56G the self-cleavage was 0.2.
With C23G A47G A64G the self-cleavage was 0.14.
For C23G A47U G53A A65U U67C U69A U72C, the self-cleavage was 0.04.
C23G A64G U76A showed a self-cleavage of 0.18.
C23G A75G A77U gave a self-cleavage of 0.08.
Work on C23G C32A C38U U78C yielded a self-cleavage of 0.08.
C23G C34A A56G U58C A65U gave a self-cleavage of 0.05.
For C23G C37A U60C C81U, the self-cleavage was 0.06.
For C23G C40A U72C, the self-cleavage was 0.09.
Variant C23G C59A U60C U72C has a self-cleavage of 0.06.
C23G C62A U72G showed a self-cleavage of 0.09.
For C23G G30A A35G A65G U80C, the self-cleavage was 0.11.
Variant C23G G33C U41A U51C U80C has a self-cleavage of 0.11.
C23G G36A U48C U72G U78C U80C gave a self-cleavage of 0.2.
Work on C23G G42A U54G yielded a self-cleavage of 0.07.
C23G G42U A57G gave a self-cleavage of 0.11.
C23G G42U A64U gave a self-cleavage of 0.33.
For C23G U25C C27A A57C G63U, the self-cleavage was 0.09.
Variant C23G U25C C29G has a self-cleavage of 0.37.
With C23G U26A A35G G52A A77G the self-cleavage was 0.05.
C23G U26A A47G U66C gave a self-cleavage of 0.06.
Work on C23G U26A C38A U54A yielded a self-cleavage of 0.22.
C23G U26A C39U U72A showed a self-cleavage of 0.14.
For C23G U26A U31A A64U, the self-cleavage was 0.08.
Variant C23G U26C A45G U72A C81G has a self-cleavage of 0.15.
With C23G U26C A47U A57G U80C the self-cleavage was 0.11.
C23G U26C C32U gave a self-cleavage of 0.06.
C23G U26C U43C C44U U48C U60C A65G showed a self-cleavage of 0.05.
C23G U26C U43G A75G showed a self-cleavage of 0.06.
Work on C23G U26C U54C yielded a self-cleavage of 0.08.
C23G U31A A56G U67C gave a self-cleavage of 0.12.
Variant C23G U31A G33A C81A has a self-cleavage of 0.07.
C23G U31A U69A gave a self-cleavage of 0.04.
C23G U31C A47G A64G gave a self-cleavage of 0.07.
For C23G U31C C32U A45G, the self-cleavage was 0.05.
With C23G U31C U43C U60A A64G the self-cleavage was 0.08.
With C23G U41A A45G G61C U66C the self-cleavage was 0.1.
For C23G U41C G63U A65G, the self-cleavage was 0.07.
Work on C23G U41C U78A yielded a self-cleavage of 0.1.
In the case of C23G U43C A47G, the self-cleavage is reported as 0.18.
C23G U43C C62A A75U showed a self-cleavage of 0.2.
With C23G U48C U67C the self-cleavage was 0.09.
Work on C23G U48C U67G yielded a self-cleavage of 0.17.
In the case of C23G U51C C79U, the self-cleavage is reported as 0.05.
C23G U54A U67C C79U showed a self-cleavage of 0.05.
Variant C23G U54C A75G has a self-cleavage of 0.05.
C23G U54C U58G U60C A65G U72C gave a self-cleavage of 0.04.
Variant C23G U72C U74C has a self-cleavage of 0.23.
Variant C23U A28C U41C has a self-cleavage of 0.23.
With C23U A28G A47G U58C U69C the self-cleavage was 0.07.
Work on C23U A28G U48C U60A U66C A77U yielded a self-cleavage of 0.11.
C23U A28G U80C showed a self-cleavage of 0.25.
Variant C23U A28U A35G U41C U49C U72A has a self-cleavage of 0.07.
Work on C23U A28U U69G U80A yielded a self-cleavage of 0.12.
Variant C23U A35C A45C G63A U72C has a self-cleavage of 0.13.
Work on C23U A35G A56G yielded a self-cleavage of 0.57.
Variant C23U A35G U43C has a self-cleavage of 0.41.
C23U A35G U69A U72C A77U showed a self-cleavage of 0.21.
For C23U A35U A47G U48A U58C, the self-cleavage was 0.09.
For C23U A35U A47U, the self-cleavage was 0.03.
For C23U A35U A56G C59U U72C, the self-cleavage was 0.09.
C23U A35U C39A U69C showed a self-cleavage of 0.04.
C23U A35U C39G G42A U80C gave a self-cleavage of 0.09.
C23U A35U U48C U54C showed a self-cleavage of 0.13.
For C23U A35U U51C U74C A75G, the self-cleavage was 0.17.
Work on C23U A45G A57G yielded a self-cleavage of 0.24.
For C23U A45G C81G, the self-cleavage was 0.32.
With C23U A45G G70A the self-cleavage was 0.05.
Work on C23U A45U U51C A64G U69C U72G yielded a self-cleavage of 0.
C23U A47G C81A gave a self-cleavage of 0.11.
C23U A47G U48C showed a self-cleavage of 0.08.
C23U A56G A75U gave a self-cleavage of 0.35.
With C23U A56U A64G the self-cleavage was 0.26.
C23U A64U U80C showed a self-cleavage of 0.1.
With C23U A65G U69C the self-cleavage was 0.09.
With C23U C29U U41A U43C U69C A75G the self-cleavage was 0.03.
In the case of C23U C32G U72C U78C, the self-cleavage is reported as 0.06.
Variant C23U C32U A45G A57G U60C has a self-cleavage of 0.07.
For C23U C32U U51A, the self-cleavage was 0.13.
With C23U C37G U43C C62A U69C U74C U80G the self-cleavage was 0.07.
In the case of C23U C38A U49C A57U U66C, the self-cleavage is reported as 0.11.
Variant C23U C38U A56G has a self-cleavage of 0.07.
For C23U C39A U67A, the self-cleavage was 0.31.
Variant C23U C39U A45G U48A has a self-cleavage of 0.04.
With C23U C40A A56U A64U G73U the self-cleavage was 0.07.
C23U C44U A56G gave a self-cleavage of 0.07.
Variant C23U C50G A64C U72C has a self-cleavage of 0.06.
Variant C23U C68A U74A has a self-cleavage of 0.1.
